Some of the results follow.

In this assay the test system is PfAP2-HC AP2 domain (GST-tagged). Put plainly: gcPBM binding intensity (ln(normalized median fluorescence intensity)); higher = stronger DNA binding. A digest of the protocol: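 For binding intensity, the highest Masliner-normalised natural-log median intensity across replicate spots of either probe orientation was taken. Protein bound to the array was stained with Alexa488 anti-GST antibody and scanned at 488 nm. The protein, GST-tagged P. falciparum DNA-binding domains from E. coli at about 25 μg on average, had been applied for 1 h to an Agilent 4 × 180k array of primer-extended double-stranded 36-bp intergenic genomic probes and negative controls.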
As for “ATATGGGTGAACATATGTACATATATATATTGATAA [XGTACX_site8438]”, the “gcPBM binding intensity (ln)” value amounted to 9.68. Turning to “TTGGTATATTATAAAAGTACACATAATAAAAAATTT [XGTACX_site7985]”, the “gcPBM binding intensity (ln)” value turned out to be 9.57.

On to “CCTAAAGTGTAAAATTCACACACATATATATATATA [CACACA_site8385]”, for which the “gcPBM binding intensity (ln)” value amounted to 9.89. In the case of “TTTATTTATAGGTATACACACTTTAATTAAAAGTTG [CACACA_site7232]”, the “gcPBM binding intensity (ln)” value came to 9.53. Under “TTTATTTTTGAAGTTGCACACACAAAAATAAAAAGT [CACACA_site8030]” stands 9.76. Under “ATTAAAAAAATATACGCACACAAAATGTAATAACAA [CACACA_site2439]” stands 10.1; under “TAATTTGTTATGTATTGTACAAATAATATATGATAT [XGTACX_site1985]”, 9.6.

On to “TTTTGTTTAAAAAAAAAAAACAAAAAAAAGCAATTA [CACACA_negctrl_site314]”, for which the “gcPBM binding intensity (ln)” value worked out at 9.38. In the case of “TTACATAATTTATGTACACACGCAAATACTTATAAT [CACACA_site4331]” it was 9.76; in that of “ATTTTTCATTCTGGACATGTTACCATTATATATATG [CACACA_negctrl_site61]”, 10. In the case of “ATAACTATAATAATCATACACACCAAAGAGAATATT [CACACA_site6970]” it was 10.2; in that of ATTATTACTTTTTGAGTGCACATACACACAGACATA, 9.81; in that of “AGTAGTCTGGAGAAGAGTACACAGTATCTGGTAGCT [XGTACX_site2042]”, 9.59. Under “ACATTAACATTGTTGGTGCAAAATTAATATGTTTTT [GTGCAC_site9673]” stands 9.59.

Take “TTAAATATTTTTTATACACACATTTCTTATTTAACT [CACACA_site229]”: the “gcPBM binding intensity (ln)” value was 9.8. Turning to “TAATTATTATTAATAGTACACACTATGGCATTTCAA [CACACA_site2488]”, the “gcPBM binding intensity (ln)” value amounted to 9.63. In the case of “CAAACATATTAATGTACACACACCCACCCACAAACA [CACACA_site2752]” it was 10.4; in that of “TTTTTTTCAATATTTGCACACGATTAAAATATTTAA [CACACA_site5266]”, 9.63; in that of “TATTATATATATATATGTACATATTGTATGTTATAT [XGTACX_site5303]”, 9.99.

With “TATGTGAATATTGAGGTGCGGTTGTTAAAATTTATA [GTGCAC_site9915]”, the “gcPBM binding intensity (ln)” value is 9.76. Consider “TATATGTAATATTATACATGCATACATAATATATAT [TGCATGCA_site558]”, for which the “gcPBM binding intensity (ln)” value is 9.67.

Regarding “TTTTTTTTTTATAAGGCACACATGAATATTTATACA [CACACA_site1316]”, the “gcPBM binding intensity (ln)” value was 9.59. In the case of “TATGTGAATATAATCACACACAATACGGAAAGAGAC [CACACA_site7311]” it was 11.2; in that of “ACCCACGTAAATTAAGCATGCCTTCCGTTATATTTA [TGCATGCA_site365]”, 9.84.

Turning to “TTTTACTAAATATATACACACATTATGCATATATAT [CACACA_site3287]”, the “gcPBM binding intensity (ln)” value amounted to 9.92.

Turning to “TTTTAAAGAAAAAAATGTACAAAATTTTTATTTTAA [XGTACX_site1496]”, the “gcPBM binding intensity (ln)” value was found to be 9.02. Under “AATGTGATAATATACACACACGCATATATATATATA [CACACA_site323]” stands 9.88; under “CTGTGTAATTTAAATTGTACGTTTGAAAAAAATAAA [XGTACX_site5667]”, 9.51. Under “AAAACACTTATGGATTGTACAATAAAAATTATATTA [XGTACX_site7042]” stands 9.92; under “TTCTGTGTGTATTGGCGTACAATTATTTTGCCTACA [XGTACX_site205]”, 9.82; under “ACATTCACAAAATTTTGTACACATATATATATATAT [XGTACX_site3518]”, 9.96. For “GTATTATCTGCTTTTTGTACACATATATTTAAAAAA [XGTACX_site7603]”, the “gcPBM binding intensity (ln)” value was found to be 9.66. In the case of “TTTATTTATTAAGAATGTACATGTATTTGTTAAATA [XGTACX_site4465]” it was 9.4. For “TAAATCATGGGATAAGCATGCGCGCACATGTTTGTT [TGCATGCA_site768]”, the “gcPBM binding intensity (ln)” value is 9.75. Under CGATTTTTTAAGTTTGTGCACTTAAAAACTATAACA stands 9.43; under “CCATTTGATAATAATGCACACCACATATATTTATAT [CACACA_site9002]”, 9.93.

“AAAAGGAATTATAGGAAATAAATATATACAAATATA [TGCATGCA_negctrl_site528]”: the “gcPBM binding intensity (ln)” value turned out to be 9.68. For “TATACTATACAACACATACACACAAAAAAAAAAAAA [CACACA_site537]”, the “gcPBM binding intensity (ln)” value came out at 9.98.

As for “TATATGTCAATATCTACACACATATAGGTAATTATT [CACACA_site7475]”, the “gcPBM binding intensity (ln)” value was determined as 10. As to “TATTTCAAAATAAAATAAAATATATATATATGTATA [XGTACX_negctrl_site416]”, the “gcPBM binding intensity (ln)” value worked out at 9.3.

In the case of “ATATAATATTGAGTTTGTACATATATATATGAAGAT [XGTACX_site4444]”, the “gcPBM binding intensity (ln)” value is 9.7. For “AATTATGCATTTGTCACACATATATATTACACTTGC [CACACA_site5324]”, the “gcPBM binding intensity (ln)” value worked out at 9.91. Under “AAAAAAAAAAAAAAATGTACATTATACACATTATAT [XGTACX_site6824]” stands 9.66; under “TAGCCAAAATATAATTTACACACTTATTAAATAATT [CACACA_site7963]”, 9.5; under “ATTTTCCCTTGTTTTACACACGTGCTGATATGAGAT [CACACA_site2164]”, 9.91.
